The other results are listed elsewhere or left out.
Key:
Test in all cases: glycan array binding signal (z-score within array); higher = stronger binding
Conditions in all cases: glycan notation: IUPAC condensed, linker removed
[1] = biological target: Neu5Ac(a2-3)GalNAc(b1-4)GlcNAc
How it was run: (§1)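 Glycan array data were curated from 3228 arrays in the Consortium for Functional Glycomics database and kept only where the protein sequence was available. Glycan names were converted to IUPAC-condensed notation, and columns mapping to the same glycan were averaged. The binding signal is a within-array Z-score, averaged across arrays of the same protein sequence at different concentrations or buffers and across linkers. Negative Z-scores can be read as non-binding.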

[2] = biological target: Neu5Ac(a2-3)[GalNAc(b1-4)]Gal(b1-4)Glc
How it was run: as §1

[3] = biological target: Neu5Ac(a2-3)[GalNAc(b1-4)]Gal(b1-4)GlcNAc
How it was run: as §1

[4] = biological target: Neu5Ac(a2-3)[GalNAc(b1-4)]Gal(b1-4)GlcNAc(b1-3)GalNAc
How it was run: as §1

[5] = biological target: Neu5Ac(a2-3)[Neu5Ac(a2-6)]GalNAc
How it was run: as §1

Neu5Ac(a2-6)Gal = biological target: Neu5Ac(a2-6)Gal
How it was run: as §1

[6] = biological target: Neu5Ac(a2-6)Gal(b1-3)GlcNAc(b1-3)[Gal(b1-4)GlcNAc(b1-6)]Gal(b1-4)Glc
How it was run: as §1

Neu5Ac(a2-6)Gal(b1-4)Glc = biological target: Neu5Ac(a2-6)Gal(b1-4)Glc
How it was run: as §1

[7] = biological target: Neu5Ac(a2-6)Gal(b1-4)GlcNAc
How it was run: as §1

[8] = biological target: Neu5Ac(a2-6)Gal(b1-4)GlcNAc(b1-2)Man
How it was run: as §1

[9] = biological target: Neu5Ac(a2-6)Gal(b1-4)GlcNAc(b1-2)Man(a1-3)Man(b1-4)GlcNAc(b1-4)GlcNAc
How it was run: as §1

[10] = biological target: Neu5Ac(a2-6)Gal(b1-4)GlcNAc(b1-2)Man(a1-3)[Gal(b1-4)GlcNAc(b1-2)Man(a1-6)]Man(b1-4)GlcNAc(b1-4)GlcNAc
How it was run: as §1

[11] = biological target: Neu5Ac(a2-6)Gal(b1-4)GlcNAc(b1-2)Man(a1-3)[GlcNAc(b1-2)Man(a1-6)]Man(b1-4)GlcNAc(b1-4)GlcNAc
How it was run: as §1

[12] = biological target: Neu5Ac(a2-6)Gal(b1-4)GlcNAc(b1-2)Man(a1-3)[GlcNAc(b1-4)][Neu5Ac(a2-6)Gal(b1-4)GlcNAc(b1-2)Man(a1-6)]Man(b1-4)GlcNAc(b1-4)GlcNAc
How it was run: as §1

[13] = biological target: Neu5Ac(a2-6)Gal(b1-4)GlcNAc(b1-2)Man(a1-3)[Man(a1-6)]Man(b1-4)GlcNAc(b1-4)GlcNAc
How it was run: as §1

[14] = biological target: Neu5Ac(a2-6)Gal(b1-4)GlcNAc(b1-2)Man(a1-3)[Neu5Ac(a2-3)Gal(b1-4)GlcNAc(b1-2)Man(a1-6)]Man(b1-4)GlcNAc(b1-4)GlcNAc
How it was run: as §1

[15] = biological target: Neu5Ac(a2-6)Gal(b1-4)GlcNAc(b1-2)Man(a1-3)[Neu5Ac(a2-6)Gal(b1-4)GlcNAc(b1-2)Man(a1-6)]Man(b1-4)GlcNAc(b1-4)GlcNAc
How it was run: as §1

[16] = biological target: Neu5Ac(a2-6)Gal(b1-4)GlcNAc(b1-2)Man(a1-3)[Neu5Ac(a2-6)Gal(b1-4)GlcNAc(b1-2)Man(a1-6)]Man(b1-4)GlcNAc(b1-4)[Fuc(a1-6)]GlcNAc
How it was run: as §1

[17] = biological target: Neu5Ac(a2-6)Gal(b1-4)GlcNAc(b1-2)Man(a1-6)Man(b1-4)GlcNAc(b1-4)GlcNAc
How it was run: as §1

[18] = biological target: Neu5Ac(a2-6)Gal(b1-4)GlcNAc(b1-2)Man(a1-6)[Gal(b1-4)GlcNAc(b1-2)Man(a1-3)]Man(b1-4)GlcNAc(b1-4)GlcNAc
How it was run: as §1

[19] = biological target: Neu5Ac(a2-6)Gal(b1-4)GlcNAc(b1-2)Man(a1-6)[GlcNAc(b1-2)Man(a1-3)]Man(b1-4)GlcNAc(b1-4)GlcNAc
How it was run: as §1

[20] = biological target: Neu5Ac(a2-6)Gal(b1-4)GlcNAc(b1-2)Man(a1-6)[Man(a1-3)]Man(b1-4)GlcNAc(b1-4)GlcNAc
How it was run: as §1

[21] = biological target: Neu5Ac(a2-6)Gal(b1-4)GlcNAc(b1-2)[Neu5Ac(a2-6)Gal(b1-4)GlcNAc(b1-4)]Man(a1-3)[GlcNAc(b1-4)][Neu5Ac(a2-6)Gal(b1-4)GlcNAc(b1-2)[Neu5Ac(a2-6)Gal(b1-4)GlcNAc(b1-6)]Man(a1-6)]Man(b1-4)GlcNAc(b1-4)GlcNAc
How it was run: as §1

[22] = biological target: Neu5Ac(a2-6)Gal(b1-4)GlcNAc(b1-2)[Neu5Ac(a2-6)Gal(b1-4)GlcNAc(b1-4)]Man(a1-3)[GlcNAc(b1-4)][Neu5Ac(a2-6)Gal(b1-4)GlcNAc(b1-4)Man(a1-6)]Man(b1-4)GlcNAc(b1-4)GlcNAc
How it was run: as §1

[23] = biological target: Neu5Ac(a2-6)Gal(b1-4)GlcNAc(b1-2)[Neu5Ac(a2-6)Gal(b1-4)GlcNAc(b1-6)]Man(a1-6)[Neu5Ac(a2-6)Gal(b1-4)GlcNAc(b1-2)Man(a1-3)][GlcNAc(b1-4)]Man(b1-4)GlcNAc(b1-4)GlcNAc
How it was run: as §1

[24] = biological target: Neu5Ac(a2-6)Gal(b1-4)GlcNAc(b1-3)Gal(b1-3)GlcNAc
How it was run: as §1

[25] = biological target: Neu5Ac(a2-6)Gal(b1-4)GlcNAc(b1-3)Gal(b1-4)GlcNAc
How it was run: as §1

[26] = biological target: Neu5Ac(a2-6)Gal(b1-4)GlcNAc(b1-3)Gal(b1-4)GlcNAc(b1-2)Man(a1-3)[Neu5Ac(a2-6)Gal(b1-4)GlcNAc(b1-3)Gal(b1-4)GlcNAc(b1-2)Man(a1-6)]GalNAc
How it was run: as §1

[27] = biological target: Neu5Ac(a2-6)Gal(b1-4)GlcNAc(b1-3)Gal(b1-4)GlcNAc(b1-3)Gal(b1-4)GlcNAc
How it was run: as §1

[28] = biological target: Neu5Ac(a2-6)Gal(b1-4)GlcNAc(b1-3)Gal(b1-4)GlcNAc(b1-3)Gal(b1-4)GlcNAc(b1-2)Man(a1-3)[Neu5Ac(a2-6)Gal(b1-4)GlcNAc(b1-3)Gal(b1-4)GlcNAc(b1-3)Gal(b1-4)GlcNAc(b1-2)Man(a1-6)]GalNAc
How it was run: as §1

[29] = biological target: Neu5Ac(a2-6)Gal(b1-4)GlcNAc(b1-3)Gal(b1-4)GlcNAc(b1-3)GalNAc
How it was run: as §1

[30] = biological target: Neu5Ac(a2-6)Gal(b1-4)GlcNAc(b1-3)Gal(b1-4)GlcNAc(b1-3)[Neu5Ac(a2-6)Gal(b1-4)GlcNAc(b1-3)Gal(b1-4)GlcNAc(b1-6)]GalNAc
How it was run: as §1

[31] = biological target: Neu5Ac(a2-6)Gal(b1-4)GlcNAc(b1-3)Gal(b1-4)GlcNAc(b1-6)[Gal(b1-3)]GalNAc
How it was run: as §1

[32] = biological target: Neu5Ac(a2-6)Gal(b1-4)GlcNAc(b1-3)Gal(b1-4)[Fuc(a1-3)]GlcNAc(b1-3)Gal(b1-4)[Fuc(a1-3)]GlcNAc
How it was run: as §1

[33] = biological target: Neu5Ac(a2-6)Gal(b1-4)GlcNAc(b1-3)GalNAc
How it was run: as §1

[34] = biological target: Neu5Ac(a2-6)Gal(b1-4)GlcNAc(b1-3)[Neu5Ac(a2-6)Gal(b1-4)GlcNAc(b1-6)]GalNAc
How it was run: as §1

[35] = biological target: Neu5Ac(a2-6)Gal(b1-4)GlcNAc(b1-6)GalNAc
How it was run: as §1

[36] = biological target: Neu5Ac(a2-6)Gal(b1-4)GlcNAc(b1-6)[Gal(b1-3)GlcNAc(b1-3)]Gal(b1-4)Glc
How it was run: as §1

B1: PLU (Photorhabdus luminiscence) (protein)
chain: HHHHHHENLYFQSSIVFASIDPRSNPLQTSSQNYVDIPGLKLDVSKYSNSPCLTALITLNIPTPYASGNNFPGGNFAIVTDQGEQLAYGGFTYSSKIPENSGRMPFTLVARYSLASNVSTIKAQWSNIRGSTVHIDSYASISAVIQCNQLV
B1 was tested, and the “glycan array binding signal (z-score)” value [1] was -0.294, the “glycan array binding signal (z-score)” value [2] was -0.324 and the “glycan array binding signal (z-score)” value [3] was -0.263. For the same binder, the “glycan array binding signal (z-score)” value [4] was -0.267, the “glycan array binding signal (z-score)” value [5] was -0.281 and the “glycan array binding signal (z-score)” value (Neu5Ac(a2-6)Gal) was -0.306. For the same binder, the “glycan array binding signal (z-score)” value [6] was -0.377, the “glycan array binding signal (z-score)” value (Neu5Ac(a2-6)Gal(b1-4)Glc) was -0.273 and the “glycan array binding signal (z-score)” value [7] was -0.248. The “glycan array binding signal (z-score)” value [8] was -0.311, the “glycan array binding signal (z-score)” value [9] was -0.243 and the “glycan array binding signal (z-score)” value [10] was -0.224. The “glycan array binding signal (z-score)” value [11] was -0.283, the “glycan array binding signal (z-score)” value [12] was -0.164 and the “glycan array binding signal (z-score)” value [13] was -0.232. The “glycan array binding signal (z-score)” value [14] was -0.296, the “glycan array binding signal (z-score)” value [15] was -0.244 and the “glycan array binding signal (z-score)” value [16] was 0.022. For the same binder, the “glycan array binding signal (z-score)” value [17] was -0.189, the “glycan array binding signal (z-score)” value [18] was -0.27 and the “glycan array binding signal (z-score)” value [19] was -0.263. The “glycan array binding signal (z-score)” value [20] was -0.231, the “glycan array binding signal (z-score)” value [21] was -0.205 and the “glycan array binding signal (z-score)” value [22] was -0.267. The “glycan array binding signal (z-score)” value [23] was -0.279, the “glycan array binding signal (z-score)” value [24] was -0.333 and the “glycan array binding signal (z-score)” value [25] was -0.318. For the same binder, the “glycan array binding signal (z-score)” value [26] was -0.239, the “glycan array binding signal (z-score)” value [27] was -0.311 and the “glycan array binding signal (z-score)” value [28] was -0.162. For the same binder, the “glycan array binding signal (z-score)” value [29] was -0.258, the “glycan array binding signal (z-score)” value [30] was -0.12 and the “glycan array binding signal (z-score)” value [31] was -0.27. The “glycan array binding signal (z-score)” value [32] was -0.212, the “glycan array binding signal (z-score)” value [33] was -0.291 and the “glycan array binding signal (z-score)” value [34] was -0.278. The “glycan array binding signal (z-score)” value [35] was -0.292 and the “glycan array binding signal (z-score)” value [36] was -0.335.
